Measured values from PubChem BioAssay AID493208 (National Center for Advancing Translational Sciences (NCATS), 2011).
The campaign covered roughly 44,000 compounds. About 340 (0.77%) were called active. Inconclusive results (about 5%) are left out. The call rests on the fitted dose curve; in most records, active means well fitted inhibition curve with a large enough effect; inconclusive means small, poorly fitted or top-dose-only effect; inactive means flat fitted curve, though single readings scatter. The list shows a part of the results.

Assay: Acumen qHTS Assay for Inhibitors of the mTORC1 Signaling Pathway in MEF (Tsc2-/-, p53-/-) Cells: Sytravon;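 further: plate controls were DMSO for no effect and rapamycin for full effect; nearly all actives have a fitted effect of over 50% in size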
Conditions: phospho-rpS6 immunofluorescence/PI, 24 h; series mostly up to 38.3 µM; activity change, negative = inhibition: at the top concentration
How it was run: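 Tsc2-/-, p53-/- MEFs (empty-vector stable line) in DMEM + 10% FBS were treated with compounds 24 h at 37 degree Celsius, fixed, and immunostained for phospho-rpS6 (Alexa-488) with propidium iodide counterstain. Laser-scanning cytometry gave % positive cells, normalized against 7.5 nM rapamycin and DMSO.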

Activity change, negative = inhibition, inactive:
Cc1ccc(N2CC(C(=O)Nc3ccc(Br)cc3)CC2=O)cc1 (stereo not drawn) -3.57%
COc1ccc(C(=O)n2nc(-c3ccco3)nc2NCc2cccs2)cc1 2.49%
C=Cc1ccc(CN2C(=O)N(c3cccc(Cl)c3)S(=O)(=O)c3ccccc32)cc1 0.0426%
Cc1ccc2c(=O)c(C(=O)c3cccc(Cl)c3)cn(CC(=O)NCc3ccc(F)cc3)c2n1 -15%
O=C(NCc1cccc(Cl)c1)C(=O)Nc1ccc2nc3n(c(=O)c2c1)CCCCC3 -8.05%
CCCCN1CCCc2cc(CN(CCCN3CCOCC3)C(=O)Nc3ccc(OCC)cc3)ccc21 -5.74%
COc1cccc(CN2CCc3nc(SCC(=O)Nc4ccccc4)[nH]c(=O)c3C2)c1 -0.098%
COc1ccc(C)cc1Nc1c2c(nc3nc(-c4cccs4)nn13)CCCC2 -11.6%
CCN(CC)S(=O)(=O)c1ccc2c(c1)N(CC(=O)N1CCN(c3ccccc3F)CC1)C(=O)CO2 -2.69%
COc1cc(Nc2nc3ccccc3c3nnc(C)n23)cc(OC)c1 0.469%
Cc1ccc(NC(=O)N2CCc3cc(S(=O)(=O)N4CCC(C)CC4)ccc32)cc1C 3.9%
CC1Cc2cc(S(=O)(=O)NCc3ccccc3Cl)ccc2N1C(=O)C1CCC1 (stereo not drawn) -16.3%
CCOC(=O)c1ccc(Nc2ncnc3c2cnn3-c2cccc(Cl)c2)cc1 14.5%
CCN(C(=O)c1cc2c(s1)-c1ccccc1OC2)c1cc(Cl)ccc1OC -9.28%
Cc1ccccc1NS(=O)(=O)c1nnc(NC(=O)c2ccccc2C)s1 7.42%
O=S(=O)(NCCS(=O)(=O)N1CCN(c2ccccc2F)CC1)c1ccc(Cl)cc1 0.725%
COc1ccc(N2CCN(C(=O)CCn3c(=O)c4cccn4c4cccnc43)CC2)cc1 3.15%
CCOC(=O)c1ccc(NC(=O)c2ncn(-c3ccccc3)n2)cc1 8.01%
CCN(CC)c1ccc(C(=O)N2CCC(c3c[nH]c4ccccc34)(c3c[nH]c4ccccc34)CC2)cc1 -4.28%
O=C(NC1CCN(Cc2ccccc2)CC1)c1ccc(Cn2c(=O)c3ccccc3n(Cc3ccccc3)c2=O)cc1 -7.53%
Cc1ccc(-c2nc(-c3cc4cccc(OCc5cccc(C)c5)c4oc3=O)no2)cc1 -1.75%
Cc1ccc(NC(=O)/C(C#N)=C/c2cc(C)n(-c3ccc(F)cc3)c2C)cc1C 3.75%
CCc1ccc(NC(=O)Cn2c3ncccc3c(=O)n2-c2ccc(C)c(C)c2)cc1 0%
O=C(c1ccc2c(c1)N(Cc1ccccc1F)C(=O)c1ccccc1S2=O)N1CCN(c2ccccc2)CC1 (stereo not drawn) -3.84%
Cc1ccc(CNC(=O)c2ccc(-n3cnc4cccnc43)cc2)cc1 -0.101%
O=C(NCCc1csc(-c2cccc(F)c2)n1)c1cccs1 -12.7%
O=C(Cc1ccccc1)Nc1sc2c(c1C(=O)Nc1ccc(Cl)cc1)CCCC2 -1.52%
N#C/C(=C\c1ccc(Cl)cc1)c1nc2ccccc2[nH]1 22.3%
Cc1cccc(NC(=O)CSc2nc3c([nH]c4ccccc43)c(=O)n2C)c1C -4.18%
CCOc1ccc(NC(=O)c2ccc(-c3nc(COc4ccccc4)c(C)o3)cc2)cc1 0.636%
COc1ccccc1CNC(=O)Cn1ncc2c3ccccc3n(Cc3ccccc3C)c2c1=O 2.6%
CC(NC(=O)Nc1ccccc1C(F)(F)F)c1c(-n2cccc2)sc2c1CCCC2 (stereo not drawn) 1.94%
COc1ccccc1NC(=O)CSc1oc(-c2cccs2)nc1S(=O)(=O)c1ccc(Br)cc1 -12.9%
CCOC(=O)c1ccc(NS(=O)(=O)c2ccc(Br)s2)cc1 2.32%
CN(C(=O)CSc1nc2c(c(=O)[nH]1)CCCC2)c1ccccc1 6.13%
CCOc1ccc(S(=O)(=O)N2CCN(c3c(C)cccc3C)CC2)c2ccccc12 -1.75%
CCOc1ccccc1NC(=O)C1CCN(S(=O)(=O)c2ccccc2)CC1 3.31%
Cc1cc(C)cc(OC(=O)c2snnc2C)c1 -10.5%
COc1cc(NC(=O)Cn2ncc3c([nH]c4ccc(C)cc43)c2=O)cc(OC)c1OC -1.53%
COc1cc(C(=O)Nc2ccc3oc(-c4ccccc4)nc3c2)cc(OC)c1OC 7.82%
O=C1Nc2ccc(S(=O)(=O)Nc3ccccc3O)c3cccc1c23 -13.3%
Cn1c2ccccc2c2c(C(=O)N3CCN(c4ccc(F)cc4)CC3)cn(C3CCCCC3)c(=O)c21 0.652%
COc1cc(Cl)c(C)cc1NC(=O)CSc1ncc(S(=O)(=O)c2ccc(C(C)(C)C)cc2)c(=O)[nH]1 1.73%
COc1ccc(NC(=O)CSc2nnc(-c3cccs3)o2)cc1 -7.95%
CCOc1ccccc1Nc1cc(-c2ccccc2)nc(C)n1 -5.26%
CC(C)CCN(Cc1ccco1)C(=O)c1cc2c(Cl)nc3ccccc3c2s1 -0.015%
Cc1ccc(S(=O)(=O)CC(=O)Nc2sc3c(c2C#N)CCCCC3)cc1 -6.04%
COc1ccc(-c2noc(CSCC(=O)Nc3cccc(C(F)(F)F)c3)n2)cc1OC -10.7%
